In the supplement of paper PMC5499739:
The full ranking holds about 16,000 sequences; the median of “Z-score” is about -0.37, and the highest 2% start at about 3.2. The list shows a part of the results.

Each sequence was assayed on RBM10 RRM1-ZnF (GST-tagged construct) (assay: RNAcompete 7-mer binding Z-score; higher = stronger binding preference).
Outline: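 GST-tagged RBM10 constructs (20 pmol) and a designed pool of 241 399 RNAs up to 41 nt (1.5 nmol) were allowed to bind for 30 min at 4°C in 1 ml Hepes pH 7.8 buffer with glutathione Sepharose beads. After four 2-min washes at 4°C, bound RNA was identified by microarray hybridisation. Enrichment was scored per heptamer motif as a one-sided Z-score across the probes containing it.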

Sequence | RNAcompete 7-mer binding Z-score
GUAUAGA | 0.774
AUAAGGG | 3.77
ACAAUCG | -0.392
UUUGACC | -0.88
CGAUGAU | -0.246
UGGCGUA | 0.316
CUAUCGG | -0.5
CAUCCGA | -0.698
CGAAUGU | -0.21
UAUGAAC | -0.327
GAGUCUG | -0.295
GUUCUGC | -0.581
UACCGUC | -0.756
AAUCUAG | -0.386
CUGUCCA | -0.698
UGGCGGA | 1.83
GUUCCUA | -0.691
ACAUGUU | -0.503
GGUUACA | 1.26
AGUUUAC | -0.659
CAUGUAG | 0.00404
AUCAUCG | -0.467
ACCCUCA | -0.626

Sequence | RNAcompete 7-mer binding Z-score
UUCAACC | -0.834
CAUCAAU | -0.668
UAGGCAC | 0.147
CGACCGU | -0.646
GUCGCCG | -0.298
AGUUGCA | 0.0723
UUGGGAC | 1.58
GGCUUCC | -0.451
CUGGCAU | -0.461
GGGUCAC | 1.52
GCCCGGU | -0.37
UCUGAGU | -0.568
CAUCAGC | -0.753
GAUUUGU | -0.178
CCAAUGC | -0.668
AGUCGGC | -0.0772
AGAGACC | -0.636
CGGAUCU | -0.37
GCGUAGC | -0.0155
CUUGUCA | -0.802
UCAAAUA | -0.626
CUGAAAU | -0.561
CGAUGAG | 0.699

Sequence | RNAcompete 7-mer binding Z-score
AACCUAA | -0.818
ACACCGA | -0.532
UCCCUGC | -0.539
GCGGCAG | 0.829
UUGUCUA | -0.717
GUACCCC | -0.204
UGAUGUC | -0.587
AGCGAUA | 0.108
GGCCUUG | -0.35
UUGCUUU | -0.717
UGCAUAC | -0.36
UUUUCAU | -0.727
AGCUGUU | -0.737
UCCUCCC | -0.415
GUGGAGA | 2.78
AAGUUGU | -0.0642
UUCAACA | -0.555
GAUAACC | -0.597
AUUGGGG | 3.01
AGGUCAC | -0.155
UUCUUUU | -0.675
CAAAGUC | -0.493
UGACACU | -0.49

Sequence | RNAcompete 7-mer binding Z-score
CGUUUGC | -0.545
UGCACUA | -0.503
GGGACUA | 1.55
CCGCUUU | -0.951
UGGACCU | -0.0285
GCGAACG | 0.738
CCUUCAA | -0.847
CGCGCGG | 0.849
UUAGCGC | -0.535
AUCUUUA | -0.86
UACGUAC | -0.389
CUCCCGC | -0.519
CGACGGA | 1.01
GGCCUAA | -0.0739
GACCUUC | -0.954
UACGUCG | -0.314
AUCUUAG | -0.487
CAUCCUA | -0.818
AAUUUAC | -0.769
GCGUUAG | 0.069
UAGCUCG | -0.321
GUGGUAA | 2.03
AGGAUAC | 0.878
